In PubChem BioAssay AID1240 (Sanford-Burnham Center for Chemical Genomics, 2008):
The whole screen tested about 50,000 compounds, of which about 800 (1.6%) showed an effect of 50% or more. The list shows a part of the results.

Molecular target: Bcl-2-like protein 10 (Homo sapiens) (UniProt Q9HD36)
Assay: Phenotype converters, Bcl-B/TR3 peptide binding displacement, primary biochemical FP (AID 1240);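 further: 0% = Bcl-B with tracer peptide and DMSO and 100% = tracer peptide lacking Bcl-B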
Conditions: GST-Bcl-B / FITC-TR3 peptide fluorescence polarization; stronger effect = higher value; compound at 3.75 mg/L

UniProt Q9HD36, sequence (Q9HD36 whole entry, looked up): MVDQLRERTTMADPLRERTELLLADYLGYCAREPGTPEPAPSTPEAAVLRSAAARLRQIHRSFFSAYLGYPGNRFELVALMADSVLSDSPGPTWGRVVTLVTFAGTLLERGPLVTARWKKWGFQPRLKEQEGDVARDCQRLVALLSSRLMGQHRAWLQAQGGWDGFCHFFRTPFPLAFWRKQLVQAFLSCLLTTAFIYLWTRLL

Row | SMILES | displacement
1 | COc1cccc(NC(=O)c2ccc(CN(c3ccccc3)S(C)(=O)=O)cc2)c1 | -6.9%
2 | COc1cc(/C=c2/sc3nc4ccccc4n3c2=O)cc(Br)c1OC | 14.3%
3 | Cc1ccccc1Nc1nc2nonc2nc1N1CCOCC1 | 13.3%
4 | COc1ccc(OC)c(C2NC(=O)NC(C)=C2C(=O)OCc2ccc3c(c2)OCO3)c1 (stereo not given) | -0.1%
5 | COc1cc(/C=C2\C(=O)NC(=S)N(c3cccc(Br)c3)C2=O)c([N+](=O)[O-])cc1OC | -3.8%
6 | CN(C(=O)CN1C(=O)C(C)(C)Nc2ccccc21)c1ccccc1 | -3.2%
7 | CC(=O)c1cccc(NC(=O)COc2ccc(Cl)cc2C)c1 | 11.8%
8 | CCOc1ccc(Nc2nc(-c3sc(NC(=O)c4ccccc4)nc3C)cs2)cc1 | 14.6%
9 | CCOC(=O)c1ccc(N/C=C/C(=O)c2cccs2)cc1 | 14.1%
10 | Nc1nc(Oc2ccc(F)cc2)c(Br)c(=O)[nH]1 | -7.1%
11 | COc1ccc(NC(=O)C2=C(C)NC(=S)NC2c2ccccc2F)cc1 (stereo not given) | -0.6%
12 | CC1CCN(C(=O)c2cccc(Cl)c2)CC1 | 4.5%
13 | O=C1CC(c2ccccc2)CC2=C1C(c1ccc(-c3ccccc3)cc1)Nc1ccccc1N2 (stereo not given) | -6%
14 | CC(=O)CC(=O)Nc1ccn(-c2ccccc2)n1 | 8.3%
15 | CCC(=O)c1ccc(N2CCN(C(=O)c3ccccc3)CC2)c(F)c1 | 4.2%
16 | COc1ccc(O)c(C(=O)CC(=O)c2ccc(C)cc2)c1 | -14%
17 | O=c1/c(=C/c2cc(Cl)ccc2OCc2ccccc2F)sc2nc3ccccc3n12 | 4.2%
18 | COc1ccc(OC)c(/C=C2/C=C(c3cccc4ccccc34)OC2=O)c1 | -38%
19 | CCC(=O)Nc1cccc(NC(=O)c2ccc(Cl)c(Cl)c2)c1 | 15%
20 | CN(C)c1ccc(NC(=O)C(=O)NCCOc2ccccc2)cc1 | 3.6%
21 | COc1ccc(N2C(=O)NC(=O)/C(=C/c3ccc(O)c([N+](=O)[O-])c3)C2=O)cc1 | -5.7%
22 | Cc1cc(C(=O)N2CCN(Cc3ccccc3)CC2)ccc1[N+](=O)[O-] | 12.7%
23 | O=C1NC(=O)N(c2ccccc2)C(=O)/C1=C/c1cccc(Oc2ccccc2)c1 | -2.6%
24 | COC(=O)c1cc(NC(=O)COc2ccc(Cl)cc2C)cc(C(=O)OC)c1 | -3.8%
25 | COc1cccc(CN2CCN(Cc3ccccc3[N+](=O)[O-])CC2)c1OC | -4.9%
26 | Cc1cc(O)ccc1N=Cc1c(C)[nH]n(-c2ccccc2)c1=O | 5.9%
27 | O=C(NC1CCCCC1)N1CCN(Cc2ccccc2)CC1 | 0.5%

Row | SMILES | displacement
28 | CC(=O)c1cc(F)c(N2CCOCC2)cc1C | 5.7%
29 | O=C(Nc1nc2ccccc2n1CCOc1ccccc1)c1ccc(Cl)cc1 | -3.2%
30 | O=C(NCC1CCCO1)c1cc2nc(-c3ccc([N+](=O)[O-])cc3)cc(C(F)(F)F)n2n1 (stereo not given) | 3.7%
31 | CCN1C(=O)N(C)C2C1N(CC)C(=O)N2C (stereo not given) | -7.1%
32 | O=C(CSc1nc2ccc([N+](=O)[O-])cc2s1)c1ccc(F)cc1 | -1.7%
33 | COc1ccc(C(=O)COc2cc3c(C(=O)OC(C)C)c(C)oc3cc2Br)cc1 | 8.8%
34 | CC(=O)Nc1ccc(NS(=O)(=O)c2c(C)cc(C)cc2C)cc1 | 1.2%
35 | CCOc1ccc(C(=O)Nc2cc(Cl)cc(Cl)c2)cc1Cl | -1.1%
36 | CCOC(=O)C1=C(C)NC(=O)NC1c1ccc(SC)cc1 (stereo not given) | -9.2%
37 | Cc1ccc(S(=O)(=O)C(CC(=O)c2ccc(O)cc2)c2ccccc2)cc1 (stereo not given) | 7.9%
38 | CCC1(C)Cc2c(sc3[nH]c(=S)n(-c4ccccc4)c(=O)c23)CO1 (stereo not given) | 14.2%
39 | Cc1ccc(S(=O)(=O)Oc2c(C=O)[nH]c3ccccc23)cc1 | -2.2%
40 | COc1ccc(CN2CCN(C3CCCCC3)CC2)cc1 | -16.7%
41 | Cc1ccc(N2C(=O)CN=C2Nc2nc(C)cc(C)n2)c(C)c1 | -6%
42 | COc1ccc(CNC23CN4CN(CN(C4)C2)C3)cc1 | 1.8%
43 | COc1ccc(NC(=O)c2ccc(N(C)S(=O)(=O)c3ccccc3)cc2)cc1OC | 16.7%
44 | COc1cccc(/C=C2\SC(=S)N(c3cccc(C)c3C)C2=O)c1 | -4.5%
45 | CC(C)(C)c1cnnn1-c1ccc(/C=C/C(=O)c2ccccc2)cc1 | 2.9%
46 | O=C(/C=C/c1ccccc1)C1=C(O)C(=O)N(c2ccccn2)C1c1ccccc1F (stereo not given) | 93.5%
47 | COC(=O)C1=C(C)N(C)C(C)=C(C(=O)OC)C1c1cccc(OC)c1 | -8.5%
48 | CC(C)(C)C1(O)CC(C(F)(F)F)=NN1C(=O)CCc1ccccc1 (stereo not given) | -19.9%
49 | C(=N\c1nc2ccccc2s1)/c1ccc(/C=N/c2nc3ccccc3s2)cc1 | 0.5%
50 | O=c1c(Oc2ccccc2Br)c(C(F)(F)F)oc2c(CN3CCCC3)c(O)ccc12 | 0%
51 | Cc1cc(Br)ccc1NC(=O)Cn1cnc2c1c(=O)n(C)c(=O)n2C | -8.7%
52 | COc1cccc(/C=C2/SC(=S)N(CCC(=O)Nc3c(C)n(C)n(-c4ccccc4)c3=O)C2=O)c1 | 7.7%
53 | CC(=O)c1c(C)oc2ccc(NS(=O)(=O)c3ccccc3C)cc12 | 8.5%
54 | Cc1cc(Br)cc2c(N=Nc3cccc4cccnc34)c(O)n(C)c12 | 4.9%

Row | SMILES | displacement
55 | CC(=O)NC(NC(=S)Nc1cccc(Cl)c1)C(Cl)(Cl)Cl (stereo not given) | -1%
56 | COc1ccc(Br)cc1C(=O)Nc1cccc(-c2nc3cc(C)ccc3o2)c1C | 20.2%
57 | O=C(Cn1nnc(-c2ccc(F)cc2)n1)N/N=C/c1ccc(-c2ccc3c(c2)COC3=O)o1 | -18.8%
58 | COc1ccc(N(CC(O)CN2C(=O)NC(C)(C)C2=O)S(=O)(=O)c2ccc(C)cc2)cc1 (stereo not given) | 9.1%
59 | CC(C)C(=O)Nc1ccc2oc(-c3cc(I)ccc3Cl)nc2c1 | 14.2%
60 | CCc1ccc(-c2nc(-c3cc(OC)c(OC)c(OC)c3)no2)cc1 | -10.2%
61 | CC1(C)CC(=O)C2=C(C1)c1c(ccc3ccccc13)NC2c1cccs1 (stereo not given) | 7.2%
62 | O=C(/C=C\c1ccccc1)Nc1ccc(Br)cn1 | 2.3%
63 | CCCCNc1cc(=O)n(C)c(=O)n1C | 6.5%
64 | Cc1nc2sc3c(c2c(=O)n1/N=C/c1cccnc1)CCCC3 | -8.8%
65 | COC(=O)c1ccc(-n2c(C)cc(/C=C3\NC(=S)NC3=O)c2C)cc1 | 8.2%
66 | COc1ccc(Br)cc1C(=O)Nc1ccc(-c2nc3ccccc3o2)cc1 | 134%
67 | O=C1Nc2c(Br)cc(Br)c3cccc1c23 | -3.5%
68 | COc1ccc(C2Nc3ccccc3C(=O)N2Cc2ccccc2)cc1Cn1nc(C)c(Br)c1C (stereo not given) | 15.4%
69 | CCC(CC)=N/N=C1/NC(=O)C(CC(=O)Nc2ccc(C(=O)O)cc2)S1 (stereo not given) | -43%
70 | CC(NC(=O)c1ccc(S(=O)(=O)N2CCCCC2)cc1)C12CC3CC(CC(C3)C1)C2 (stereo not given) | -11.4%
71 | O=C1OC(c2ccccc2)=N/C1=C\c1cccc(OC(F)(F)C(F)F)c1 | 9.6%
72 | CCn1c(=N)n(CC(=O)c2cc(C(C)(C)C)c(O)c(C(C)(C)C)c2)c2ccccc21 | 3.8%
73 | COc1ccccc1NC(=O)/C(=C/c1ccccc1)c1ccccc1 | 12.8%
74 | O=C(Cn1cc(/C=C2\SC(=O)NC2=O)c2ccccc21)Nc1ccccc1 | -4.9%
75 | O=C(NCCO)/C(=C/c1cccc([N+](=O)[O-])c1)NC(=O)c1cccs1 | 0%
76 | CCC1=NN2C(=N)/C(=C/c3ccc(-c4ccc(C)c(Cl)c4)o3)C(=O)N=C2S1 | 3.9%
77 | Cc1ccccc1N1CCN(C(=S)c2ccc(N(C)C)cc2)CC1 | 12.2%
78 | Cc1cc(C)c(NC(=O)C(C)N2C(=O)c3ccccc3C2=O)c(C)c1 (stereo not given) | 10.5%
79 | CCOC(=O)C1(C)C=C(Nc2ccc(O)c(C(=O)O)c2)C(=O)N1c1ccccc1 (stereo not given) | 1.3%
80 | COc1cc(/C=C2/C(=O)NN(c3ccc(C)cc3)C2=O)c([N+](=O)[O-])cc1OC | 4.5%
81 | O=C(CCCN1C(=O)/C(=C\c2ccc(F)cc2)SC1=S)Nc1ccc(O)cc1 | 1.8%

Row | SMILES | displacement
82 | Cc1ccc(OCC(=O)N2CCN(c3ccccn3)CC2)c(Br)c1 | 0.4%
83 | CCOC(=O)c1c(-c2ccccc2)oc2ccc(O)c(CN3CCCC3)c12 | 9.4%
84 | O=[N+]([O-])c1ccc(-c2noc(COc3cccc4ccccc34)n2)cc1 | -1.7%
85 | CNC(=O)C(=O)NCCN1CCN(S(=O)(=O)c2ccc([N+](=O)[O-])cc2)CC1 | -3%
86 | COc1ccc(-c2cc3c(ccc4ccccc43)oc2=O)cc1OC | 19.9%
87 | O=C(Nc1nccs1)c1ccc(Oc2ccc(C(=O)Nc3nccs3)cc2)cc1 | -0.1%
88 | CCOc1ccccc1N(CC(=O)Nc1ccccc1C(=O)OC)S(=O)(=O)c1ccccc1 | 10.7%
89 | O=C(NCC1CCCO1)c1ccccc1 (stereo not given) | -8%
90 | Cc1ccc2[nH]c(C)c(CC(=O)N/N=C/c3ccco3)c2c1 | -5.6%
91 | COc1ccc(CC(=O)NNC(=O)c2ccccc2Cl)cc1 | -8.7%
92 | O=C(O)c1ccc(NC(=O)c2ccc(Br)cc2)cc1 | -4.2%
93 | C=CCn1c(SCC(=O)NCc2cccnc2)nc2sc3c(c2c1=O)CCCC3 | -2.5%
94 | O=C(CSc1nc2ccc([N+](=O)[O-])cc2[nH]1)c1ccc(Br)cc1 | 11.9%
95 | N#CC(c1ccc(O)cc1)N1CCCCC1 (stereo not given) | -9.1%
96 | COc1ccc(C2CC(=O)C3=C(C2)Nc2ccccc2NC3c2ccc(Cl)c(Cl)c2)cc1OC (stereo not given) | 5.9%
97 | CCOC(=O)c1ccc(NC(=O)c2cc3ccccc3oc2=O)cc1 | -5.5%
98 | CCN(CC)c1ccc(NC(=O)COc2cc(C)c(Cl)c(C)c2)cc1 | 7.9%
99 | CC(C)(C)c1cc(N=NC(=O)c2ccncc2)cc(C(C)(C)C)c1O | -5.4%
100 | CCOc1cccc(-c2nc3cc(OC)c(OC)cc3c(=O)o2)c1 | 11.8%
101 | COc1ccc(/C(N)=N/OC(=O)c2cccc(I)c2)cc1OC | 8%
102 | O=C(Nc1ccc(Br)cc1F)C(Sc1ccccc1)c1ccccc1 (stereo not given) | -5.7%
103 | Oc1ccc(O)c(-c2csc(NN=C(c3ccccc3)c3ccccc3)n2)c1 | -12.7%
104 | COC(=O)c1c(-c2ccc(Br)cc2)csc1NC(=O)C1CCCCC1C(=O)O (stereo not given) | -6.6%
105 | COc1ccc(N2C(=O)NC(=O)/C(=C/c3cc([N+](=O)[O-])cc(OC)c3O)C2=O)cc1 | -15.8%
